Data published in article PMC12040169 (PLOS Biology, 2025).
This is one part of the list.

The compounds below were run on T1, C. trachomatis L2/434/Bu expressing GFP (CTL2-GFP). Settings: total inclusion area; 28.5 h, 10 µM; inhibitor.
T1 construct: L2/434/Bu GFP intracellular growth in HeLa cells
Parameters: species or system HeLa; C. trachomatis total inclusion area by high-content imaging, normalised to DMSO
In short: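 Bulk GFP and resorufin signals were read first. Wells were then fixed, stained with Hoechst and imaged to detect GFP inclusions and host nuclei. MICs followed the previously described calculation.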

Structure (SMILES) | % of control remaining
C[C@H](Nc1cncc(-c2cccc(N(C)C)c2)n1)c1ccccc1 [CBK065699] | 59.7089
c1ccc(-c2c(-c3ccccc3)n(Cc3ccco3)c3ncn4nc(-c5ccncc5)nc4c23)cc1 [CBK265298] | 119.135
O=C(O)c1[nH]c2ccccc2c1C(c1ccsc1)c1c(C(=O)O)[nH]c2ccccc12 [CBK267811] | 16.8855
O=C(O)c1ccc(Nc2nc3ccccc3nc2NS(=O)(=O)c2ccc(Cl)cc2)cc1 [CBK296072] | 103.322
O=C(CSc1nc(-c2ccccc2)cc(-c2ccccc2)n1)Nc1cccc([N+](=O)[O-])c1 [CBK263896] | 98.9181
CCc1nn(CC(=O)NC(C)(C)C)c(=O)c2cc3ccsc3n12 [CBK284183] | 66.8095
CCNC(=O)Nc1ncc(-c2ccsc2)c2cccnc12 [CBK070686] | 62.5554
CCC(c1c(O)c2ccccc2oc1=O)c1cccc2ccccc12 (centres unmarked) [CBK016684] | 75.581
COc1ccc([C@@]23CC[C@@H](NC(=O)Nc4cc(C)c(C)cc4[N+](=O)[O-])C[C@@H]2N(C)CC3)cc1OC [CBK036478T] | 97.4419
Cc1ccc(C(=O)N2CCN(Cc3ccccc3)CC2)cn1 [CBK200170] | 91.0543
CNC1CCCCCC1(O)c1ccccc1 (centres unmarked) [CBK005073] | 93.0831
O=C(Cc1cccs1)N1CCC(c2nnc3n2CCCCC3)CC1 [CBK284606] | 92.9883
Cc1nc(CN2CCC(Cc3ccccc3)CC2)cs1 [CBK126438] | 48.0597
CCOC(=O)N1CCN(C(=O)COc2cccc3ccccc23)CC1 [CBK262992] | 95.1424
O=C(O)c1ccc(CSc2nnc(Cc3ccccc3)[nH]2)o1 [CBK269208] | 87.7939
O=C(Nc1nc2ccc(Cl)cc2s1)c1nc(SCc2ccccc2)ncc1Cl [CBK268825] | 103.052
O=C(O)CCCC(=O)Nc1ccc(C(=O)O)cc1 [CBK261534] | 85.8882
CNC(=O)Nc1ccc(C(C)(C)C)cc1Br [CBK086434] | 144.882
Cc1nn(CCC#N)c(C)c1[C@@H]1C=C[C@@H](NC(=O)NCc2ccccc2)C1 [CBK289174] | 88.0878
COc1cc(CC(=O)Nc2cccc(-c3ccc(OC4CCNCC4)cc3)n2)cc(OC)c1OC [CBK138351] | 85.2914
N#CCCCN1CCC(Oc2nccnc2OCc2cccc(C(F)(F)F)c2F)CC1 [CBK153646] | 77.8603
CCOC(=O)C(Cc1ccccc1)NC(=O)c1cn[nH]c1C (centres unmarked) [CBK305499] | 42.9501
Cc1ccc(C(=O)O)cc1NC(=O)c1ncn(-c2ccccc2)n1 [CBK269181] | 107.368
CC(NC(=O)CCN1CCN(C)CC1)c1cc2cc(Cl)ccc2o1 (centres unmarked) [CBK281601] | 66.9175
N#Cc1c(NC(=O)c2cc(S(=O)(=O)N3CCCCC3)c(Cl)cc2Cl)sc2c1CCCC2 [CBK264579] | 92.9126
Cc1ccc(C(=O)N2CCN(S(=O)(=O)c3sc(C(=O)O)c(C)c3C(=O)O)CC2)s1 [CBK297150] | 109.325
O=C1CC(c2ccccc2)=NN1c1nc(-c2ccccc2)cc(-c2ccc(F)cc2)n1 [CBK261717] | 111.317

Structure (SMILES) | % of control remaining
CCN(CCO)c1ccc(Nc2nc(-c3c(OC)cccc3OC)cn3ccnc23)cc1 [CBK066267] | 84.6696
Cc1csc(CCNCc2c(C(C)C)nn(C)c2N(C)C)n1 [CBK304140] | 103.866
N#Cc1nc(-c2ccccc2)oc1NCCN1CCCCC1 [CBK264573] | 101.55
CC(CC(=O)N1CCOC(c2nc(C(C)(C)C)n[nH]2)C1)n1cccc1 (centres unmarked) [CBK305214] | 47.9312
COC(=O)[C@H]1CN(C(=O)C2CC(=O)N(C)C2)C[C@@H]1c1ccccc1F (some centres unmarked) [CBK285470] | 76.0564
CCOC(=O)C1CCCN(Cc2cc(F)cc(C(C)=O)c2O)C1 (centres unmarked) [CBK304020] | 87.7087
O=C(NO)c1nc[nH]c1C(=O)NO [CBK262077] | 101.127
Cc1ccc(Oc2nnnn2-c2ccccc2)c(Br)c1 [CBK002827] | 119.713
CCOC(=O)N1CCC(NC(=O)N(CCC#N)C2CCCCC2)CC1 [CBK156384] | 88.8832
c1ccc(-c2nccnc2NCC2CC2)cc1 [CBK088539] | 96.3848
C=CCNC(=O)C1C2CCC3(CC(=O)c4cc(Cl)ccc4O3)C21 (centres unmarked) [CBK284873] | 98.3881
CCOC(=O)C1CCCN(S(=O)(=O)c2cc(C)c(Cl)cc2C)C1 (centres unmarked) [CBK044846] | 56.6941
O=[N+]([O-])c1cc2c(cc1C(Nc1ccccn1)c1cc(Cl)c3cccnc3c1O)OCO2 (centres unmarked) [CBK267795] | 44.2611
CCOC(=O)C1=c2s/c(=C\c3cccnc3)c(=O)n2C(N)=C(C#N)C1c1cccnc1 (centres unmarked) [CBK262549] | 89.4459
O=C(Cc1c[nH]c2ccccc12)N1CCC2(CCCN(C(=O)c3ccc(OC(F)(F)F)cc3)C2)C1 (centres unmarked) [CBK131579] | 96.682
c1ccc(-c2nnc3sc(-c4ccccn4)nn23)cc1 [CBK267344] | 112.533
Brc1ccc(-c2nnco2)cc1 [CBK026512] | 64.7989
Cc1ccc(CN(CCCn2ccnc2)Cc2cnn(C)c2)s1 [CBK283113] | 75.7367
O=C(COc1ccc(S(=O)(=O)N2CCCCC2)cc1)Nc1ccc2c(c1)OCCO2 [CBK268205] | 85.0091
c1ccc2c(c1)nc(N1CCNCC1)n1cnnc21 [CBK270145] | 87.0439
COc1ccc([C@@]23CCC(N)C[C@@H]2N(C)CC3)c(F)c1OC (some centres unmarked) [CBK067416] | 16.0212
CCN(CC)C(=O)CCc1nc2sc3c(c2c(=O)[nH]1)CCCC3 [CBK305069] | 61.154
CC(=O)Nc1ccc(-c2nc[nH]c2Br)cc1 [CBK019063] | 72.8993
CC(C)c1nccn1CCCn1cncc1-c1cnn(C)c1 [CBK281812] | 89.5802
CCn1c(C(C)NC2CCN(CC(=O)OC)CC2)nc2ccccc21 (centres unmarked) [CBK305396] | 86.7016
CC(=O)NCC(CN1CCOCC1)([N+](=O)[O-])[N+](=O)[O-] [CBK261337] | 104.435
NC1=C(c2nc3ccccc3s2)C(=O)CN1CCCN1CCOCC1 [CBK265925] | 158.398

Structure (SMILES) | % of control remaining
CN(Cc1nc2ccccc2c(=O)[nH]1)Cc1cc2c(cc1Br)OCCO2 [CBK296715] | 91.4744
c1cncc(-c2nccnc2NCCCN2CCOCC2)c1 [CBK037286] | 96.9583
CCC(=O)N1CCC2(C/C=C/CC(=O)Nc3cccc(n3)C3CN(CCO3)C(=O)CN(C)C2=O)CC1 (centres unmarked) [CBK292004] | 101.365
O=C(CN(c1ccccc1)S(=O)(=O)c1ccccc1)N1CCN(Cc2ccc3c(c2)OCO3)CC1 [CBK265290] | 101.301
COc1ccccc1-c1nccnc1N1CCCC1CO (centres unmarked) [CBK036735] | 104.882
Cc1ccc(-c2noc(CN3CCN(c4ccccn4)CC3)n2)cc1 [CBK266457] | 104.863
FC(F)(F)c1ccc(OCCN2CCOCC2)nc1 [CBK113461] | 58.7462
NC(C(=O)O)C(O)c1ccccc1[N+](=O)[O-] (centres unmarked) [CBK262389] | 103.597
CS(=O)(=O)c1ccccc1S(=O)(=O)N1CCN(c2nc3ccccc3s2)CC1 [CBK269468] | 99.6376
O=[N+]([O-])c1ccc(S(=O)(=O)N2CCN(S(=O)(=O)c3ccc(Cl)cc3)CC2)cc1 [CBK264312] | 104.402
COC(=O)c1c(NC(=S)Nc2ccn(C)n2)sc2c1CCCCC2 [CBK266888] | 85.2135
Cn1cnc2cc(NCc3cc(-c4ccc(F)cc4)c[nH]c3=O)ccc21 [CBK284693] | 88.1104
O=C(NCCN1CCCC1)c1cnc2cc(C(F)(F)F)ccc2c1O [CBK107426] | 75.3789
CN(C(=O)Cc1ccccc1)c1ccccc1 [CBK012581] | 80.5663
CCCc1n[nH]c(C2CC2)c1C(=O)OCC [CBK115714] | 49.3134
CC(C)C(=O)NC(=S)Nc1ccc2oc(-c3ccncc3)nc2c1 [CBK269702] | 77.6951
CCCN1CC(NS(=O)(=O)c2ccc3oc(=O)n(C)c3c2)CC1=O (centres unmarked) [CBK307664] | 84.3113
c1ccc(N2CCN(c3cncc(-c4cccs4)n3)CC2)nc1 [CBK065502] | 114.436
O=C(c1cccnc1)N1CCN(CCN2C(=O)C3C4C=CC(C4)C3C2=O)CC1 (centres unmarked) [CBK263639] | 108.312
CN(C)CC(=O)NC(Cc1ccsc1)c1nccs1 (centres unmarked) [CBK284801] | 104.411
Cc1nc(CN2CCCC(NCc3ccc(C(N)=O)cc3)C2)no1 (centres unmarked) [CBK304962] | 46.5837
Cn1c(NCc2ccco2)nc2c1c(=O)n(Cc1cccc(Br)c1)c(=O)n2C [CBK268863] | 78.7166
COc1ccc2cc(COC(=O)c3cnc(C)cn3)c(Cl)nc2c1 [CBK295288] | 96.4548
Cc1ccc(NS(=O)(=O)c2cccs2)cc1 [CBK045362] | 112.127
Cc1cc(-c2nnc(SCC(=O)N3CCOCC3)o2)no1 [CBK268984] | 55.0901
CC(=O)Nc1nnc(-c2ccc(Cl)cc2)s1 [CBK287331] | 107.87
